Experimental data taken from the supplement of paper PMC3334620.
Over roughly 33,000 sequences, “E-score (-0.5 to 0.5)” has its median near -0.021; the highest 2% begin near 0.32. The list shows a part of the results.

Each sequence was assayed against T1, Zap1 (UniProt P47043) (assay: PBM E-score (8-mer binding enrichment) (E-score (-0.5 to 0.5)); higher = stronger / more preferred TF binding; most listed sequences are background and not binding sites). Conditions: protein concentration: 200 nM; construct: GST-full length.
T1 sequence: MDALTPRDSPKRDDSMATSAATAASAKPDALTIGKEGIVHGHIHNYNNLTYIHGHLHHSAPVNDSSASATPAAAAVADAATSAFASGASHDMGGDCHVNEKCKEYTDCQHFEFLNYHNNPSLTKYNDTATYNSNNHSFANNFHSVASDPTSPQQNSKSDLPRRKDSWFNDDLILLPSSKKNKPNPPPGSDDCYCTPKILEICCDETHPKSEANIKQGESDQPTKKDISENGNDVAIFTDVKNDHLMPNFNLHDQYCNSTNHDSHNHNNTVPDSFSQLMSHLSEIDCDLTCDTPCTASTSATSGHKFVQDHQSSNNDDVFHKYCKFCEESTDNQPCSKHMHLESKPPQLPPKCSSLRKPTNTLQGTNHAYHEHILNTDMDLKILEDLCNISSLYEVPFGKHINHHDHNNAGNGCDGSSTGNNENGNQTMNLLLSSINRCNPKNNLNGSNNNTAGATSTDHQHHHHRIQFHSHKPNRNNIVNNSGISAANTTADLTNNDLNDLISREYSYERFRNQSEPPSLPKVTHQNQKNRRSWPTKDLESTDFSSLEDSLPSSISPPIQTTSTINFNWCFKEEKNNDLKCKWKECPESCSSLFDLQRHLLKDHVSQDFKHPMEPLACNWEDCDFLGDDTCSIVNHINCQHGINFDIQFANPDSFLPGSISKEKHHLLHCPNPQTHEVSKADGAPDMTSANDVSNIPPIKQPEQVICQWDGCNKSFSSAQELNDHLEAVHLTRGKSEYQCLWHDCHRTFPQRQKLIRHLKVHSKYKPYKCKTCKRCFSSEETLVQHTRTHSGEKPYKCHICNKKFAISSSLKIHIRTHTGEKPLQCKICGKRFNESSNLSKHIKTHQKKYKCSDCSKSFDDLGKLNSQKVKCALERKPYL
Procedure: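 Universal 'all 10-mer' protein binding microarrays (Agilent AMADID 015681) probed with GST-tagged S. cerevisiae TFs (full-length or DBD) made by in vitro transcription/translation (PURExpress), about 100-200 nM. Bound TF was detected with fluorescent anti-GST. Each ungapped 8-mer (which stands for itself and its reverse complement) is scored by the PBM enrichment score (E-score), a modified Wilcoxon-Mann-Whitney statistic from -0.5 to +0.5, computed with the Universal PBM Analysis Suite. Scale: above 0.35 generally sequence-specific binding.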

Sequence	PBM E-score
ACTCAAGC	-0.19
CCACCACC	0.183
AATTGAAT	-0.00526
CGTGCACG	-0.14
CTACCACC	-0.129
GTGACCCA	0.389
ATCCGCGG	0.0629
CGACCACC	0.15
ATAATAGA	0.0295
GATGTTTA	-0.0174
AAGGTCCT	0.123
AGACAGGC	-0.153
ATACACGA	0.0189
CATACATA	0.11
AATCGAGT	-0.0147
AATAACGA	-0.036
CGATACCC	0.275
AGTGTTCG	0.0328
ATCTCTAA	-0.0316
CCTTACGA	-0.00084
TCATAACA	0.112
ATTTATCC	0.202

Sequence	PBM E-score
AGAACCCG	0.223
TAAAATTA	0.212
CACATAGA	-0.0537
GGCGTGGA	-0.316
ACAGATCA	0.0477
GAAATTAA	0.27
CACTCTCA	-0.078
GCATCAGC	-0.161
TCCCAAAA	0.17
TAGCATCA	0.0756
AATCTAGC	-0.226
CTCCGTTC	-0.164
CACAGACC	0.153
CAAGCAGG	0.02
CGTCTCGC	-0.294
AGCAACTC	-8e-05
ACGGCCAA	-0.0636
AATCTGAA	-0.0699
AAGCAATT	0.0249
AGATGTGA	-0.0251
GCATTTTA	0.183
TATGAAGA	0.0198

Sequence	PBM E-score
CGTGTGAG	-0.0199
CATCGACC	-0.0318
GAATGATA	0.158
ACGGCACT	0.0741
AAAACTCA	0.124
CCGTCCTA	-0.24
ACAGCTAT	-0.073
CAGTGACG	-0.0109
GCTGTTAA	0.0474
ACGCGTTG	-0.0853
ATCGGGTA	0.174
TACATCGA	0.0772
CTTACGCC	-0.171
CCAGTTCG	0.156
AGGAATCC	-0.0232
GCCTAAAA	0.142
CCTGCGCA	-0.222
GTACCAAC	0.204
ATCGAAAC	0.0832
CAGGCCCA	-0.235
ACGCTGAC	-0.0646
AGAGGCCC	-0.108

Sequence	PBM E-score
ATTTTATC	0.154
AGCGATTC	-0.127
GAGGTTAA	0.429
GCCAACCC	0.109
ACTCCTTG	0.0145
ACGCTACC	-0.0555
AAATACGA	0.0646
CCATAGTA	0.213
AGTGAACG	0.0023
CTGCTACC	0.0661
ATCGTGAC	0.176
GCTTAGTA	-0.0005
ATTCTCGA	0.111
CAATTACC	0.249
ATCTAAAT	0.136
CTTCGGTC	0.136
CTTTCGCA	0.0116
AACTAAAC	0.181
CGCCGGAG	-0.138
CAGGAGGC	-0.133
